Test results taken from publication PMC5892938.
The other results are listed elsewhere or left out. At the low end of the ranking the order means little.

Each sequence was assayed against GST-SBP-SLBP (stem-loop binding protein) (UniProt Q14493) (assay: targeted RNA Bind-n-Seq). Settings: RBNS binding buffer: 25 mM Tris pH 7.5, 150 mM KCl, 3 mM MgCl2, 0.1% Tween, 0.5 mg/mL BSA, 1 mM DTT; 27 nM protein, 750 pM RNA pool; temperature not stated; high values mean tight binding.
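Also: DESeq read counts versus GST-SBP nonspecific binding control pulldown.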

| Sequence | binding signal (log2 fold change) |
| --- | --- |
| GGUCACGUCUCAAUCAACUCUACUCCCAGGGAAAUCCCUGGUAUUCUCAACAGCUCGCAGUCAAG | 0.0166 |
| GGUCACGUCUCAAUCAACUCUAUCUCAGGAGUUUUCUCCUGCUUUGUCAACAGCUCGCAGUCAAG | 0.16 |
| GGUCACGUCUCAAUCAACUCAUCUCCAGGAGUUUACUCCUGUAUUUUCAACAGCUCGCAGUCAAG | -0.131 |
| GGUCACGUCUCAAUCAACUCACUAGAGGGGGGGAAAACCCCUUUACCCUCAUCCUCAACAGCUCGCAGUCAAG | -0.597 |
| GGUCACGUCUCAAUCAACUCAACUUCCAGGGAAAUCCCUGGCUUUCUCAACAGCUCGCAGUCAAG | -0.259 |
| GGUCACGUCUCAAUCAACUCCCUAGAGGGGGGGAAAACCCCUUUACCCUCAACUUCAACAGCUCGCAGUCAAG | 0.159 |
| GGUCACGUCUCAAUCAACUCAUCUUCAGGAGUUUACUCCUGUAUUUUCAACAGCUCGCAGUCAAG | 0.0512 |
| GGUCACGUCUCAAUCAACUCUUCCUCCAGGGAAAACCCUGGUUAAUUCAACAGCUCGCAGUCAAG | 0.0786 |
| GGUCACGUCUCAAUCAACUCUACUCCCAGGGAAAACCCUGGCAAACUCAACAGCUCGCAGUCAAG | -0.242 |
| GGUCACGUCUCAAUCAACUCUAUCUCCAGGGAAACCCCUGGUUUAUUCAACAGCUCGCAGUCAAG | -0.173 |
| GGUCACGUCUCAAUCAACUCUUCUUCAGGAGUUUCCUCCUGUUUAUUCAACAGCUCGCAGUCAAG | -0.136 |
| GGUCACGUCUCAAUCAACUCUACUUCAGGAGUUUCCUCCUGCUUACUCAACAGCUCGCAGUCAAG | 0.159 |
| GGUCACGUCUCAAUCAACUCCUAAGAGGGGGGGAAAACCCCUUUACCCUCCGCAUCAACAGCUCGCAGUCAAG | 0.313 |
| GGUCACGUCUCAAUCAACUCAAAUGAGGGGGGGAAAACCCCUUUACCCUCCAAAUCAACAGCUCGCAGUCAAG | -0.28 |
| GGUCACGUCUCAAUCAACUCUUCUUCCAGGGAAAUCCCUGGUUUUCUCAACAGCUCGCAGUCAAG | -0.0538 |
| GGUCACGUCUCAAUCAACUCUAUCUCCAGGGAAACCCCUGGUAAUUUCAACAGCUCGCAGUCAAG | -0.175 |
| GGUCACGUCUCAAUCAACUCUACUCCCAGGGAAACCCCUGGCAAUGUCAACAGCUCGCAGUCAAG | -0.0879 |
| GGUCACGUCUCAAUCAACUCAUCCCCCAGGGAAAACCCUGGCUAAUUCAACAGCUCGCAGUCAAG | 0.0372 |
| GGUCACGUCUCAAUCAACUCUUUAGAGGGGGGGAAAACCCCUUUACCCUCAAAUUCAACAGCUCGCAGUCAAG | -0.1 |
| GGUCACGUCUCAAUCAACUCAAUUUCAGGAGUUUCCUCCUGCAUAUUCAACAGCUCGCAGUCAAG | 0.00152 |
| GGUCACGUCUCAAUCAACUCGUCUUCAGGAGUUUACUCCUGCUAAUUCAACAGCUCGCAGUCAAG | -0.108 |
| GGUCACGUCUCAAUCAACUCCAUGGAGGGGGGGAAAACCCCUUUACCCUCAAUCUCAACAGCUCGCAGUCAAG | -0.284 |
| GGUCACGUCUCAAUCAACUCUACUUCCAGGGAAACCCCUGGCUAUGUCAACAGCUCGCAGUCAAG | 0.0561 |
| GGUCACGUCUCAAUCAACUCAUCGUCAGGAGUUUACUCCUGCAAAUUCAACAGCUCGCAGUCAAG | 0.0232 |
| GGUCACGUCUCAAUCAACUCAAAAGAGGGGGGGAAAACCCCUUUGCCCUCAACCUCAACAGCUCGCAGUCAAG | -0.355 |

| Sequence | binding signal (log2 fold change) |
| --- | --- |
| GGUCACGUCUCAAUCAACUCUUUUCCCAGGGAAAGCCCUGGCUAAUUCAACAGCUCGCAGUCAAG | 0.00424 |
| GGUCACGUCUCAAUCAACUCAUCCCCCAGGGAAAGCCCUGGCUAUCUCAACAGCUCGCAGUCAAG | -0.118 |
| GGUCACGUCUCAAUCAACUCAACGGCAGGAGUUUUCUCCUGGAAUUUCAACAGCUCGCAGUCAAG | 0.0757 |
| GGUCACGUCUCAAUCAACUCUAUCCCCAGGGAAACCCCUGGCAAAUUCAACAGCUCGCAGUCAAG | 0.0448 |
| GGUCACGUCUCAAUCAACUCAUCGUCCAGGGAAACCCCUGGCUAUUUCAACAGCUCGCAGUCAAG | -0.0812 |
| GGUCACGUCUCAAUCAACUCAUUCCCCAGGGAAAGCCCUGGCAUUCUCAACAGCUCGCAGUCAAG | 0.112 |
| GGUCACGUCUCAAUCAACUCAAUCUCCAGGGAAACCCCUGGCAAACUCAACAGCUCGCAGUCAAG | -0.00103 |
| GGUCACGUCUCAAUCAACUCCUUAGAGGGGGGGAAAACCCCUUUACCCUCAUCCUCAACAGCUCGCAGUCAAG | 0.0591 |
| GGUCACGUCUCAAUCAACUCUACUUCAGGAGUUUUCUCCUGUAAUUUCAACAGCUCGCAGUCAAG | 0.0138 |
| GGUCACGUCUCAAUCAACUCCGCAGAGGGGGGGAAAACCCCUUUACCCUCCACAUCAACAGCUCGCAGUCAAG | 0.00824 |
| GGUCACGUCUCAAUCAACUCUUCUCCCAGGGAAACCCCUGGCAUUUUCAACAGCUCGCAGUCAAG | -0.0695 |
| GGUCACGUCUCAAUCAACUCAACUUCCAGGGAAAACCCUGGUAUACUCAACAGCUCGCAGUCAAG | 0.373 |
| GGUCACGUCUCAAUCAACUCCAAAGAGGGGGGGAAAACCCCUUUACCCUCAAUCUCAACAGCUCGCAGUCAAG | 0.159 |
| GGUCACGUCUCAAUCAACUCUAGUCCAGGAGUUUUCUCCUGUAAUUUCAACAGCUCGCAGUCAAG | -0.187 |
| GGUCACGUCUCAAUCAACUCAAUUUCCAGGGAAAGCCCUGGUAUUUUCAACAGCUCGCAGUCAAG | 0.121 |
| GGUCACGUCUCAAUCAACUCUUCUUCAGGAGUUUACUCCUGCAAUUUCAACAGCUCGCAGUCAAG | 0.057 |
| GGUCACGUCUCAAUCAACUCUUUCCCAGGAGUUUUCUCCUGCAAAUUCAACAGCUCGCAGUCAAG | 0.0902 |
| GGUCACGUCUCAAUCAACUCUUCCCCAGGAGUUUACUCCUGCAUUUUCAACAGCUCGCAGUCAAG | 0.302 |
| GGUCACGUCUCAAUCAACUCAAAAGAGGGGGGGAAAACCCCUUUGCCCUCACAUUCAACAGCUCGCAGUCAAG | 0.12 |
| GGUCACGUCUCAAUCAACUCUACUUCCAGGGAAAGCCCUGGCUUAUUCAACAGCUCGCAGUCAAG | 0.183 |
| GGUCACGUCUCAAUCAACUCAUUCGCAGGAGUUUCCUCCUGGUUUUUCAACAGCUCGCAGUCAAG | 0.154 |
| GGUCACGUCUCAAUCAACUCAUUUCCCAGGGAAACCCCUGGUAUAUUCAACAGCUCGCAGUCAAG | -0.2 |
| GGUCACGUCUCAAUCAACUCUUCUCCCAGGGAAAACCCUGGCAAAUUCAACAGCUCGCAGUCAAG | 0.0508 |
| GGUCACGUCUCAAUCAACUCUUUCCCCAGGGAAAUCCCUGGCUAAUUCAACAGCUCGCAGUCAAG | -0.242 |
| GGUCACGUCUCAAUCAACUCUUUCCCCAGGGAAACCCCUGGUAUAUUCAACAGCUCGCAGUCAAG | -0.362 |

| Sequence | binding signal (log2 fold change) |
| --- | --- |
| GGUCACGUCUCAAUCAACUCUUCUUCCAGGGAAAGCCCUGGCAUUCUCAACAGCUCGCAGUCAAG | -0.0527 |
| GGUCACGUCUCAAUCAACUCAAUCUCAGGAGUUUCCUCCUGCUUUUUCAACAGCUCGCAGUCAAG | 0.123 |
| GGUCACGUCUCAAUCAACUCAUCUCCCAGGGAAACCCCUGGCUAACUCAACAGCUCGCAGUCAAG | 0.0359 |
| GGUCACGUCUCAAUCAACUCAUCCUCCAGGGAAAACCCUGGUAUUUUCAACAGCUCGCAGUCAAG | 0.0465 |
| GGUCACGUCUCAAUCAACUCAACUUCAGGAGUUUGCUCCUGCAAUGUCAACAGCUCGCAGUCAAG | -0.0505 |
| GGUCACGUCUCAAUCAACUCAAUCUCCAGGGAAACCCCUGGCUAAUUCAACAGCUCGCAGUCAAG | 0.0229 |
| GGUCACGUCUCAAUCAACUCUUCUUCAGGAGUUUUCUCCUGCUUUCUCAACAGCUCGCAGUCAAG | 0.111 |
| GGUCACGUCUCAAUCAACUCCUAGGAGGGGGGGAAAACCCCUUUACCCUCAUUAUCAACAGCUCGCAGUCAAG | -0.094 |
| GGUCACGUCUCAAUCAACUCUACUCCCAGGGAAAUCCCUGGUAUAUUCAACAGCUCGCAGUCAAG | 0.275 |
| GGUCACGUCUCAAUCAACUCUAAAGAGGGGGGGAAAACCCCUUUACCCUCACAAUCAACAGCUCGCAGUCAAG | -0.654 |
| GGUCACGUCUCAAUCAACUCCUUGGAGGGGGGGAAAACCCCUUUACCCUCAAUUUCAACAGCUCGCAGUCAAG | -0.0826 |
| GGUCACGUCUCAAUCAACUCACACGAGGGGGGGAAAACCCCUUUGCCCUCAAUUUCAACAGCUCGCAGUCAAG | -0.115 |
| GGUCACGUCUCAAUCAACUCCCUAGAGGGGGGGAAAACCCCUUUACCCUCCAAAUCAACAGCUCGCAGUCAAG | -0.14 |
| GGUCACGUCUCAAUCAACUCAAUGUCCAGGGAAAGCCCUGGUUUUUUCAACAGCUCGCAGUCAAG | -0.133 |
| GGUCACGUCUCAAUCAACUCAUUCUCAGGAGUUUUCUCCUGUAAUUUCAACAGCUCGCAGUCAAG | -0.00631 |
| GGUCACGUCUCAAUCAACUCAUUAGAGGGGGGGAAAACCCCUUUGCCCUCACCUUCAACAGCUCGCAGUCAAG | 0.303 |
| GGUCACGUCUCAAUCAACUCAUCUCCAGGAGUUUUCUCCUGUUUACUCAACAGCUCGCAGUCAAG | -0.0794 |
| GGUCACGUCUCAAUCAACUCAUUUUCCAGGGAAAACCCUGGUAUAUUCAACAGCUCGCAGUCAAG | -0.0333 |
| GGUCACGUCUCAAUCAACUCUUUUCCCAGGGAAAUCCCUGGUUAACUCAACAGCUCGCAGUCAAG | -0.314 |
| GGUCACGUCUCAAUCAACUCUAUCCCCAGGGAAAACCCUGGCUAACUCAACAGCUCGCAGUCAAG | -0.187 |
| GGUCACGUCUCAAUCAACUCUUCUUCCAGGGAAACCCCUGGCUUACUCAACAGCUCGCAGUCAAG | 0.186 |
| GGUCACGUCUCAAUCAACUCUACUCCAGGAGUUUUCUCCUGUAUACUCAACAGCUCGCAGUCAAG | 0.0708 |
| GGUCACGUCUCAAUCAACUCAUCCUCCAGGGAAAGCCCUGGUUAAUUCAACAGCUCGCAGUCAAG | 0.0189 |
| GGUCACGUCUCAAUCAACUCAUCGUCAGGAGUUUUCUCCUGCUAUCUCAACAGCUCGCAGUCAAG | 0.0236 |
